# Results reported in the supplement of paper PMC8728848.
# The list shows a part of the results.
# How the values were obtained:
# Experiment in all cases: glycan array binding signal (z-score within array); higher = stronger binding
# Settings in all cases: glycan notation: IUPAC condensed, linker removed
# [1] = molecular target: Fuc(a1-3)[Gal3S(b1-4)]GlcNAc6S
# In short: (§1)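 Glycan array binding is given as a within-array Z-score, which can be read as non-binding when negative. The arrays, 3228 of them, came from the Consortium for Functional Glycomics database and were retained only where the protein sequence was available. Z-scores were averaged across arrays of the same protein sequence at different concentrations or buffers and across linkers.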
# [2] = molecular target: Fuc(a1-3)[GalNAc(b1-4)]GlcNAc
# In short: as §1
# [3] = molecular target: Fuc(a1-3)[GalNAc(b1-4)]GlcNAc6S
# In short: as §1
# [4] = molecular target: Fuc(a1-4)GlcNAc
# In short: as §1
# [5] = molecular target: Fuc(b1-3)GlcNAc
# In short: as §1
# [6] = molecular target: Gal(a1-2)Gal
# In short: as §1
# [7] = molecular target: Gal(a1-3)Gal
# In short: as §1
# [8] = molecular target: Gal(a1-3)Gal(b1-3)GlcNAc
# In short: as §1
# [9] = molecular target: Gal(a1-3)Gal(b1-3)GlcNAc(b1-2)Man
# In short: as §1
# [10] = molecular target: Gal(a1-3)Gal(b1-3)GlcNAc(b1-2)Man(a1-3)[Gal(a1-3)Gal(b1-3)GlcNAc(b1-2)Man(a1-6)]Man(b1-4)GlcNAc(b1-4)GlcNAc
# In short: as §1
# [11] = molecular target: Gal(a1-3)Gal(b1-3)GlcNAc(b1-3)GalNAc
# In short: as §1
# [12] = molecular target: Gal(a1-3)Gal(b1-3)GlcNAc(b1-6)GalNAc
# In short: as §1
# [13] = molecular target: Gal(a1-3)Gal(b1-3)[Fuc(a1-4)]GlcNAc(b1-2)Man(a1-3)[Gal(a1-3)Gal(b1-3)[Fuc(a1-4)]GlcNAc(b1-2)Man(a1-6)]Man(b1-4)GlcNAc(b1-4)GlcNAc
# In short: as §1
# [14] = molecular target: Gal(a1-3)Gal(b1-4)Glc
# In short: as §1
# [15] = molecular target: Gal(a1-3)Gal(b1-4)GlcNAc
# In short: as §1
# [16] = molecular target: Gal(a1-3)Gal(b1-4)GlcNAc(b1-2)Man
# In short: as §1
# [17] = molecular target: Gal(a1-3)Gal(b1-4)GlcNAc(b1-2)Man(a1-3)[Gal(a1-3)Gal(b1-4)GlcNAc(b1-2)Man(a1-6)]Man(b1-4)GlcNAc(b1-4)GlcNAc
# In short: as §1
# [18] = molecular target: Gal(a1-3)Gal(b1-4)GlcNAc(b1-3)GalNAc
# In short: as §1
# [19] = molecular target: Gal(a1-3)Gal(b1-4)GlcNAc(b1-6)GalNAc
# In short: as §1
# [20] = molecular target: Gal(a1-3)Gal(b1-4)[Fuc(a1-3)]GlcNAc
# In short: as §1
# [21] = molecular target: Gal(a1-3)Gal(b1-4)[Fuc(a1-3)]GlcNAc(b1-2)Man(a1-3)[Gal(a1-3)Gal(b1-4)[Fuc(a1-3)]GlcNAc(b1-2)Man(a1-6)]Man(b1-4)GlcNAc(b1-4)GlcNAc
# In short: as §1
# [22] = molecular target: Gal(a1-3)GalNAc
# In short: as §1
# [23] = molecular target: Gal(a1-3)[Gal(a1-4)]Gal(b1-4)GlcNAc
# In short: as §1
# [24] = molecular target: Gal(a1-4)Gal(b1-3)GlcNAc(b1-2)Man(a1-3)[Gal(a1-4)Gal(b1-3)GlcNAc(b1-2)Man(a1-6)]Man(b1-4)GlcNAc(b1-4)GlcNAc
# In short: as §1
# [25] = molecular target: Gal(a1-4)Gal(b1-4)Glc
# In short: as §1
# [26] = molecular target: Gal(a1-4)Gal(b1-4)GlcNAc
# In short: as §1
# [27] = molecular target: Gal(a1-4)Gal(b1-4)GlcNAc(b1-2)Man(a1-3)[Gal(a1-4)Gal(b1-4)GlcNAc(b1-2)Man(a1-6)]Man(b1-4)GlcNAc(b1-4)GlcNAc
# In short: as §1
# [28] = molecular target: Gal(a1-4)Gal(b1-4)GlcNAc(b1-3)Gal(b1-4)Glc
# In short: as §1
# [29] = molecular target: Gal(a1-4)GlcNAc
# In short: as §1
# [30] = molecular target: Gal(a1-6)Glc
# In short: as §1
# [31] = molecular target: Gal(b1-2)Gal
# In short: as §1
# [32] = molecular target: Gal(b1-3)Gal
# In short: as §1
# [33] = molecular target: Gal(b1-3)Gal(b1-4)GlcNAc
# In short: as §1
# [34] = molecular target: Gal(b1-3)GalNAc
# In short: as §1
# [35] = molecular target: Gal(b1-3)GalNAc(a1-3)[Fuc(a1-2)]Gal(b1-4)Glc
# In short: as §1
# [36] = molecular target: Gal(b1-3)GalNAc(a1-3)[Fuc(a1-2)]Gal(b1-4)GlcNAc
# In short: as §1
# [37] = molecular target: Gal(b1-3)GalNAc(b1-3)Gal
# In short: as §1
binder,measurement,setting,value
Cohesin-hMARCO (Homo sapiens) (protein) LDDLDAVRIKVDTVNAKPGDTVRIPVRFSGIPSKGIANCDFVYSYDPNVLEIIEIEPGDIIVDPNPDKSFDTAVYPDRKIIVFLFAEDSGTGAYAITKDGVFATIVAKVKEGAPNGLSVIKFVEVGGFANNDLVEQKTQFFDGGANVGDTTEPATPTTPVTTPTTTDDLDAASVRIVGSSNRGRAEVYYSGTWGTICDDEWQNSDAIVFCRMLGYSKGRALYKVGAGTGQIWLDNVQCRGTESTLWSCTKNSWGHHDCSHEEDAGVECSVHHHHHH,glycan array binding signal (z-score),[1],-0.166
same,glycan array binding signal (z-score),[2],0.044
same,glycan array binding signal (z-score),[3],-0.089
same,glycan array binding signal (z-score),[4],0.04
same,glycan array binding signal (z-score),[5],0.117
same,glycan array binding signal (z-score),[6],0.419
same,glycan array binding signal (z-score),[7],-0.235
same,glycan array binding signal (z-score),[8],11.2
same,glycan array binding signal (z-score),[9],-0.227
same,glycan array binding signal (z-score),[10],-0.173
same,glycan array binding signal (z-score),[11],-0.174
same,glycan array binding signal (z-score),[12],2.88
same,glycan array binding signal (z-score),[13],-0.129
same,glycan array binding signal (z-score),[14],-0.222
same,glycan array binding signal (z-score),[15],0.036
same,glycan array binding signal (z-score),[16],0.685
same,glycan array binding signal (z-score),[17],0.043
same,glycan array binding signal (z-score),[18],-0.296
same,glycan array binding signal (z-score),[19],1.84
same,glycan array binding signal (z-score),[20],0.768
same,glycan array binding signal (z-score),[21],0.211
same,glycan array binding signal (z-score),[22],-0.479
same,glycan array binding signal (z-score),[23],-0.402
same,glycan array binding signal (z-score),[24],-0.136
same,glycan array binding signal (z-score),[25],-0.421
same,glycan array binding signal (z-score),[26],-0.328
same,glycan array binding signal (z-score),[27],-0.425
same,glycan array binding signal (z-score),[28],-0.338
same,glycan array binding signal (z-score),[29],-0.083
same,glycan array binding signal (z-score),[30],-0.325
same,glycan array binding signal (z-score),[31],2.18
same,glycan array binding signal (z-score),[32],-0.397
same,glycan array binding signal (z-score),[33],-0.262
same,glycan array binding signal (z-score),[34],0.061
same,glycan array binding signal (z-score),[35],-0.355
same,glycan array binding signal (z-score),[36],-0.331
same,glycan array binding signal (z-score),[37],-0.503
